This note sets out measurements from PubChem BioAssay AID1745853 (National Center for Advancing Translational Sciences (NCATS), 2022).

The other results are listed elsewhere or left out. Further columns of the screen follow, without active or inactive calls.

What all share (test): Primary Screen for Target Class Profiling of Small Molecule Inhibitors of Methyltransferases
In assay [1] the target is Glycine N-methyltransferase (Homo sapiens) (UniProt Q14749). Particulars: purified enzyme, MTase-Glo SAH luminescence; measured here: GNMT inhibition; at 40 µM; stronger effect = lower value. Put shortly:
(§1)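 Each enzyme was assayed with SAM and its substrate. SAH formation detected by MTase-Glo luminescence; single-point 40 uM screen[…].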

Assay [2] concerns the target Guanidinoacetate N-methyltransferase (Homo sapiens) (UniProt Q14353). Particulars: purified enzyme, MTase-Glo SAH luminescence; measured here: GAMT inhibition; at 40 µM; stronger effect = lower value. Put shortly:
as §1

For assay [3], the target named is Histamine N-methyltransferase (Homo sapiens) (UniProt P50135). The settings on record: purified enzyme, MTase-Glo SAH luminescence; measured here: HNMT inhibition; at 40 µM; stronger effect = lower value. Put shortly: as §1
Assay [4] has as its target Nicotinamide N-methyltransferase (Homo sapiens) (UniProt P40261). Particulars: purified enzyme, MTase-Glo SAH luminescence; measured here: NNMT inhibition; at 40 µM; stronger effect = lower value. Put shortly:
as §1

Assay [5] addresses Phenylethanolamine N-methyltransferase (Homo sapiens) (UniProt P11086). The settings on record: purified enzyme, MTase-Glo SAH luminescence; measured here: PNMT inhibition; at 40 µM; stronger effect = lower value. Put shortly: as §1
% is scaled to controls: 0 for no effect and ±100 for the full control effect.

`O=C(NCc1ccc(F)cc1)c1ccc2c(=O)nc3c(-c4cccc(F)c4)n[nH]n3c2c1`: the activity change, negative = inhibition in assay [1] is -17%; in assay [2] it was 1.47%; in assay [3] it was -3.67%; in assay [4], -12.5%; in assay [5] it was -4.13%.
As for `CCC(C)NC(=O)CCn1ccc2cc(S(=O)(=O)N3CCCCC3)ccc21` (stereo unspecified), the activity change, negative = inhibition in assay [1] worked out at 6.18%; in assay [2], 1.98%; in assay [3], 10.3%; in assay [4], 7.93%; in assay [5] it was 6.42%.
As for `CCCn1c(=O)c2[nH]c(-c3ccc(OCC(=O)O)cc3)nc2n(CCC)c1=O`, the activity change, negative = inhibition in assay [1] is -2%; in assay [2], 1.64%; in assay [3] it was 11.3%; in assay [4], -14.7%; in assay [5] it was 2.71%.
The matching figures for `CN(C)CCNC(=O)Cn1ccc2cc(S(=O)(=O)N3CCCCC3)ccc21`: 8.79%, 0.955%, -2.78%, 11% and 5.92%.
The matching figures for `CC(C)CCn1c(=O)c2ccc(C(=O)NC(C)C)cc2n2c(=O)n(Cc3ccccc3)nc12`: -4.52%, -5.78%, 7.91%, -3.16% and -6.43%.
The matching figures for `Cc1ccc(NC(=O)c2ncn3c2C(=O)N(C2CC2)C(C)(C(=O)NCc2ccc(F)cc2)C3)c(Cl)c1` (stereo unspecified): 0.117%, 0.178%, 1.49%, 0.238% and 0.515%.
Regarding `C=C1C(O)CC2C(C(=O)O)=COC(OC3OC(CO)C(O)C(O)C3OC(=O)/C=C\c3ccc(O)cc3)C12` (stereo unspecified), the activity change, negative = inhibition is 5.09% in assay [1]; 6.55% in assay [2]; 6.48% in assay [3]; -6.58% in assay [4]; 3.33% in assay [5].
Turning to `CN(C)CC[C@H](CSc1ccccc1)Nc1ccc(S(=O)(=O)NC(=O)c2ccc(N3CCN(Cc4ccccc4-c4ccc(Cl)cc4)CC3)cc2)cc1[N+](=O)[O-]`, the activity change, negative = inhibition is -38% in assay [2], -73.5% in assay [4] and -63% in assay [5].
On to `O=C(CCc1nnc2n(Cc3ccccc3Cl)c(=O)c3ccccc3n12)N1CCC(Cc2ccccc2)CC1`, for which the activity change, negative = inhibition was -5.4% in assay [1]; 0% in assay [2]; -1.27% in assay [3]; 9.41% in assay [4]; 1.69% in assay [5].
As for `CCN1C(=O)c2cc3ccccc3n2CC1(C)C(=O)NCC(=O)NCc1cccc(C)c1` (stereo unspecified), the activity change, negative = inhibition was -2.66% in assay [1]; 0% in assay [2]; 4.76% in assay [3]; -0.929% in assay [4]; -0.233% in assay [5].
In the same order, the values of `COc1ccc(OC)c(CN2C(=O)c3cc(-c4ccccc4)nn3CC2(C)C(=O)NCc2ccccc2)c1` (stereo unspecified) are 0.84%, 7.56%, 0.574%, -1.74% and -4.1%.
The matching figures for `CC(=O)SCC[N+](C)(C)C`: -0.483%, 8.56%, -3.8%, -0.212% and 10.3%.
The matching figures for `COc1ccccc1CNC(=O)C1(C)Cn2nc(-c3ccccc3)cc2C(=O)N1Cc1ccc(SC)cc1` (stereo unspecified): 7.41%, 0.936%, 8.64%, 0.095% and 2.6%.
For `N#CC1(c2cccc(C(=O)Nc3cc(Oc4ccc5nc(NC(=O)C6CC6)sc5n4)ccc3F)c2Cl)CC1`, the activity change, negative = inhibition in assay [1] is 2.94%; in assay [2], -31.5%; in assay [3], 5.55%; in assay [4], -46.9%; in assay [5] it was -18.4%.
In the same order, the values of `CCCOc1ccccc1C(C)Nc1nc(-c2cccnc2)nc2c1CNC2` (stereo unspecified) are -30.5%, -24.3%, -37%, -36.1% and -15%.
In the case of `CC(C)COC(=O)OCN1C(=O)CN(CCN2CC(=O)N(COC(=O)OCC(C)C)C(=O)C2)CC1=O`, the activity change, negative = inhibition in assay [1] was -12%; in assay [2], 5.34%; in assay [3], 0.531%; in assay [4], -5.3%; in assay [5], 3.67%.
In the same order, the values of `CC1CC(C)CN(S(=O)(=O)c2ccc3c(c2)oc(=O)n3CC(=O)N2CCc3ccccc3C2)C1` (stereo unspecified) are -1.65%, 0.425%, -1.77%, 2.38% and -0.278%.
Consider `COCCN(C)C[C@H]1C[C@@H](CO)CN(C(=O)c2ccc(C)c(Cl)c2)C1`, for which the activity change, negative = inhibition in assay [1] was -3.68%; in assay [2], 2.28%; in assay [3], 1.31%; in assay [4], 1.2%; in assay [5] it was 2.84%.
For `CN(c1ccc(NC(=O)Nc2ccc(OC(F)(F)F)cc2)cc1)c1ccnc(Nc2cccc(S(N)(=O)=O)c2)n1`, the activity change, negative = inhibition in assay [2] is 6.9%; in assay [4], -5.06%; in assay [5] it was 5.62%.
For the molecule `Cc1nocc1C(=O)N1C[C@@H](CO)[C@H](c2ccccn2)C1`, the activity change, negative = inhibition in assay [1] was -2.1%; in assay [2] it was -5.73%; in assay [3], 1.41%; in assay [4], -4.25%; in assay [5] it was -1.29%.
The matching figures for `O=C(NC1CCCCC1)O[C@@H]1CO[C@H]2[C@@H]1OC[C@@H]2NS(=O)(=O)c1ccc(Cl)cc1`: -5.06%, -6.21%, -2.03%, -9.83% and -9.58%.
In the same order, the values of `O=C(Nc1nc2ccccc2n1CCN1CCOCC1)c1cccc([N+](=O)[O-])c1` are 3.02%, 12.7%, 11.1%, -6.4% and 1.74%.
The matching figures for `COc1ccc(OC)c(NC(=O)N2Cc3c(sc4c3CCCC4)-n3cccc3C2c2ccccc2)c1` (stereo unspecified): -3.69%, -0.011%, -2.33%, -10.6% and -1.63%.
For `COc1ccc(C(=O)Cn2nc3n(CC(C)C)c(=O)c4ccccc4n3c2=O)cc1OC`, the activity change, negative = inhibition amounted to 6.31% in assay [1]; 0% in assay [2]; 12.3% in assay [3]; 6.86% in assay [4]; 7.87% in assay [5].
As for `O=c1cc(N2CCN(c3cccc(C(F)(F)F)c3)CC2)[nH]c(=O)n1C1CCCCC1`, the activity change, negative = inhibition in assay [1] is 5.38%; in assay [2], -2.95%; in assay [3], 2.91%; in assay [4], -17.5%; in assay [5] it was -4.71%.
In the same order, the values of `Cn1c(=O)n(C)c2cc(S(=O)(=O)N3CCC(Cc4ccccc4)CC3)ccc21` are 10.3%, 1.24%, 5.76%, -1.49% and 4.29%.
The matching figures for `COC(=O)C1=C(C)N=C2SC=C(CC(=O)NCCCN3CCCC3=O)N2C1c1ccccc1` (stereo unspecified): -2.32%, -1.02%, -3.65%, -4.83% and -1.23%.
In the same order, the values of `O=[N+]([O-])c1ccc2c(c1)S(=O)(=O)C=C2` are -16.6%, 11.2%, 11.4%, -5.6% and 0.948%.
Turning to `CCn1ccc(C(=O)N2CC3CC(C2)[C@H]2CCCC(=O)N2C3)n1` (stereo partly specified), the activity change, negative = inhibition in assay [1] was 1.22%; in assay [2], -0.6%; in assay [3], 0.504%; in assay [4] it was 2.23%; in assay [5], 0.359%.
In the same order, the values of `O=S(=O)(NCCn1c(-c2ccc(F)cc2)nc2ccccc21)c1ccc(Br)cc1` are -3.39%, 0%, 4.06%, -5.62% and 7.99%.
